{
  "source": "PubChem BioAssay AID995",
  "about": "(National Center for Advancing Translational Sciences (NCATS), 2007)",
  "note": "Among all 72,000 compounds or so, about 710 (0.99%) were called active. Inconclusive means that the source gave no clear call. Such entries were picked first, then a sample of the others. Calls come from the whole dose curve; as a rule, active = well fitted inhibition curve with a large enough effect; inconclusive = small, poorly fitted or top-dose-only effect; inactive = no such curve, though single readings can be large or run the other way. No potency is given beside an inconclusive call; the fits are too rough. % is set by controls: 0 for no effect and ±100 for the full control effect; potency is the fitted concentration of half-maximal effect; tags give direction and shape of the fitted curve.",
  "data": [
    {"assay": "qHTS Assay for Inhibitors of the ERK Signaling Pathway using a Homogeneous Screening Assay; note: nearly all actives have a fitted effect of over 55% in size", "conditions": "HEK293-V1b, vasopressin-stimulated pERK AlphaScreen; activity, negative = inhibition: at 57.5 µM (top of the series) unless noted", "outline": "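Phosphorylated ERK1/2 detected via AlphaScreen bead proximity in lysates of V1b-expressing HEK293 cells given 25 nM vasopressin for 5 min after 30 min compound exposure (37 °C). AC50 from Hill equation; basal DMSO 0%, vasopressin 100%.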", "values": [
      {"compound": "Cc1cc(Cl)cc(C)c1OCCCCn1ccnc1", "Potency": "inconclusive [inhibitor, single point]"},
      {"compound": "CS(=O)(=O)c1ccc2nc(NC(=O)c3cccs3)sc2c1", "activity, negative = inhibition": "inactive: -5.8%"},
      {"compound": "Nc1nn(S(=O)(=O)c2cccc3nsnc23)cc1-c1ccc(Br)cc1", "Potency": "inconclusive [inhibitor, single point]"},
      {"compound": "COc1ccc(-c2nnco2)cc1OC", "Potency": "inconclusive [inhibitor, full curve, poor fit]"},
      {"compound": "CCCCOC(=O)c1ccc(N2C(=O)CC(N3CCN(C/C=C/c4ccccc4)CC3)C2=O)cc1", "note": "(stereo not given)", "Potency": "inconclusive [inhibitor, full curve, poor fit]"},
      {"compound": "CSc1ncccc1C(=O)OCC(=O)Nc1cc(C(F)(F)F)ccc1N1CCOCC1", "activity, negative = inhibition": "inactive: 11.3%"},
      {"compound": "COC(=O)[C@H]1[C@H]2C[C@@H]3c4[nH]c5cc(OC)ccc5c4CCN3C[C@H]2C[C@@H](OC(=O)c2cc(OC)c(OC)c(OC)c2)[C@@H]1OC", "Potency": "inconclusive [inhibitor, partial curve]"},
      {"compound": "COc1cccc(-c2ccc3ncnc(NC4CC4)c3c2)c1", "Potency": "inconclusive [inhibitor, single point]"},
      {"compound": "COc1cc2c(cc1OC)-c1cc3ccc(OC)c(OC)c3c[n+]1CC2", "Potency": "inconclusive [inhibitor, full curve, poor fit]"},
      {"compound": "Cn1nc(C(=O)NCc2ccccn2)c2ccccc2c1=O", "Potency": "inconclusive [inhibitor, single point]"},
      {"compound": "COc1cccc2cc3c(=O)n(-c4ccccc4)nc-3oc12", "Potency": "inconclusive [inhibitor, partial curve]"},
      {"compound": "Cc1cc(-c2cccs2)n[nH]1", "activity, negative = inhibition": "inactive: -2.79%"},
      {"compound": "COc1ccc(C(=O)Nc2ccccc2C(=O)NCCCn2ccnc2)cc1", "Potency": "inconclusive [inhibitor, single point]"},
      {"compound": "Cc1ccc(Cn2ncc3c(NCCCN4CCOCC4)ncnc32)cc1", "Potency": "inconclusive [inhibitor, partial curve]"},
      {"compound": "O=C(Nc1ccc(NC(=O)C23CC4CC(CC(C4)C2)C3)cn1)c1ccco1", "activity, negative = inhibition": "inactive: -4.87%"},
      {"compound": "CC(=O)c1cc2c(cc1NC(=O)CSc1nnc(C)s1)OCO2", "activity, negative = inhibition": "inactive: -2.57%"},
      {"compound": "N[C@H](C(=O)O)[C@H](O)C(=O)O", "activity, negative = inhibition": "inactive: 4.55%"},
      {"compound": "O=C(Cc1nc(-c2ccc(Br)s2)cs1)NCCN1CCOCC1", "Potency": "inconclusive [inhibitor, single point]"},
      {"compound": "C=CCN1C(=O)CSC1=Nc1cccc(O)c1", "Potency": "inconclusive [inhibitor, partial curve, poor fit]"},
      {"compound": "COc1ccccc1NC(=O)c1ccc(NS(=O)(=O)c2c(C)noc2C)cc1", "activity, negative = inhibition": "inactive: 12.5%"},
      {"compound": "O=C(Nc1nc(-c2ccc3c(c2)OCO3)cs1)c1ccncc1", "Potency": "inconclusive [inhibitor, single point]"},
      {"compound": "O=C(Oc1ccc2c(c1)OCO2)c1ccc(Br)c(S(=O)(=O)N2CCOCC2)c1", "Potency": "inconclusive [inhibitor, partial curve]"},
      {"compound": "NCOC(=O)Cc1ccc(Br)cc1", "activity, negative = inhibition": "inactive: -16% [at 11.5 µM]"},
      {"compound": "COc1cccc(-c2nc(NCc3cccnc3)c3ccccc3n2)c1", "Potency": "inconclusive [inhibitor, partial curve]"},
      {"compound": "FC(F)(F)c1cc(CN2CCCC3(CCNCC3)C2)cc(C(F)(F)F)c1", "activity, negative = inhibition": "inactive: -8.13%"},
      {"compound": "COc1ccc(N2C(=O)CC(N3CCN(c4nc5ccccc5s4)CC3)C2=O)cc1", "note": "(stereo not given)", "Potency": "inconclusive [inhibitor, partial curve]"},
      {"compound": "COc1nc(N)nc2c1ncn2[C@@H]1C[C@H](O)[C@@H](CO)O1", "activity, negative = inhibition": "inactive: 13.3% [at 11.5 µM]"},
      {"compound": "CN(C)C(=O)c1ccc(-c2nc(Nc3ccc(F)cc3)c3ccccc3n2)cc1", "Potency": "inconclusive [inhibitor, single point]"},
      {"compound": "COC(=O)C(C#N)c1nc2ccccc2nc1N1CCCC1", "note": "(stereo not given)", "Potency": "inconclusive [inhibitor, partial curve]"},
      {"compound": "Cc1ccc2[nH]c(-c3cccc(N)c3)cc2c1", "activity, negative = inhibition": "inactive: 7.21%"},
      {"compound": "c1ccc(Oc2nc(NCc3ccco3)nc(NCc3ccco3)n2)cc1", "Potency": "inconclusive [inhibitor, full curve]"},
      {"compound": "COc1ccc2[nH]c(O)c(NC(C)=O)c2c1", "Potency": "inconclusive [inhibitor, partial curve]"},
      {"compound": "COC(=O)c1ccc(CSc2nc3c(c(=O)n2-c2ccc(Br)cc2)SCC3)o1", "Potency": "inconclusive [inhibitor, partial curve, poor fit]"},
      {"compound": "CCc1cccc2c1NC(=O)[C@]21[C@@H]2C(=O)N(Cc3ccccc3)C(=O)[C@@H]2[C@@H]2CCCN21", "Potency": "inconclusive [inhibitor, partial curve]"},
      {"compound": "Cc1onc(-c2ccccc2Cl)c1C(=O)OCC(=O)N1CCCc2ccccc21", "activity, negative = inhibition": "inactive: 53.9%"},
      {"compound": "O=C(CCCOc1ccc(Cl)cc1Cl)N1CCN(c2ccccn2)CC1", "Potency": "active: 39.8 µM"},
      {"compound": "Clc1ccc(Cn2cc(/C=N/n3cnnc3)c3ccccc32)cc1", "Potency": "inconclusive [inhibitor, single point]"},
      {"compound": "COc1cc(NC(=O)c2ccccc2)c(OC)cc1NC(C)=O", "activity, negative = inhibition": "inactive: -6.46%"},
      {"compound": "CN1C(=O)CSc2ccc(NC(=O)N3CCOCC3)cc21", "Potency": "inconclusive [inhibitor, partial curve]"},
      {"compound": "COc1ccccc1N1CCN(C(=O)c2c(-c3ccccc3Cl)noc2C)CC1", "Potency": "inconclusive [inhibitor, single point]"},
      {"compound": "N#Cc1nc(COc2ccccc2F)oc1N1CCCCCC1", "Potency": "inconclusive [inhibitor, partial curve]"},
      {"compound": "COc1cccc(-c2ccc3ncnc(N4CCN(C)CC4)c3c2)c1", "Potency": "inconclusive [inhibitor, partial curve]"},
      {"compound": "Cn1c(=O)c2c(nc(NCCCN3CCOCC3)n2Cc2cccc(Cl)c2)n(C)c1=O", "Potency": "inconclusive [inhibitor, partial curve]"},
      {"compound": "O=C1c2ccccc2C(=O)N1CCc1nc2ccccc2c(=O)n1Cc1ccco1", "Potency": "inconclusive [inhibitor, single point]"},
      {"compound": "COc1cccc2sc(Nc3nc(-c4ccccn4)cs3)nc12", "activity, negative = inhibition": "inactive: -29.4%"}
    ]}
  ]
}
